# Reference: the supplement of paper PMC11348887
# Counter-ions that a name gives are not always drawn. This is one part of the list. Cut-off read from the data, not from the text of the source: active = -2 or less and inactive = the rest. Most values come without repeats; read them as rough.
# Tested on: hPSC-derived cortical neurons (WA09)
# Assay: nuclei number (viability) z-score; higher = more surviving cells
# Details: 5 µM; treatment: days 7-14 after plating, readout day 21
# 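Note: nuclei counted from DAPI counterstain by automated high-content image analysis, four fields per well at ×20 in 384-well plates, with sequential b-score then z-score normalization.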
row,SMILES,nuclei number (z-score)
1,CS(=O)(=O)Nc1ccc([N+](=O)[O-])cc1Oc1ccccc1 [Nimesulide],inactive: 0.296
2,CCOC(=O)c1ccc(N2NC(=O)C(=Cc3ccc([N+](=O)[O-])o3)C2=O)cc1,inactive: -0.702
3,N#CN=C(NCCCCCCOc1ccc(Cl)cc1)Nc1ccncc1,active: -7.04
4,CCn1cc(C(=O)O)c(=O)c2cc(F)c(N3CCN(C)CC3)cc21 [Pefloxacin Mesylate Dihydrate],inactive: 0.485
5,CCn1cc(C(=O)O)c(=O)c2cc(F)c(N3CCN(C)CC3)cc21 [Pefloxacin Mesylate],inactive: -0.231
6,CCNC(=O)c1noc(-c2cc(Cl)c(O)cc2O)c1-c1ccc(OC)cc1,active: -5.29
7,C[C@@H]1O[C@@H]1P(=O)(O)O [Fosfomycin Tromethamine],inactive: 0.761
8,C[C@@H]1CN(c2c(F)c(N)c3c(=O)c(C(=O)O)cn(C4CC4)c3c2F)C[C@H](C)N1 [Sparfloxacin],inactive: -0.669
9,C[C@@H]1C(=O)O[C@H]2C[C@@]34[C@H]5C[C@@H](C(C)(C)C)[C@]36[C@@H](OC(=O)[C@@H]6O)O[C@@]4(C(=O)O5)[C@]21O [Ginkgolide A],inactive: -0.249
10,CC1=C(C(=O)OC2CCCCC2)C(c2ccc([N+](=O)[O-])cc2)C2=C(CC(C)(C)CC2=O)N1 (stereo not given),inactive: -0.54
11,O=C(O)C(Cc1ccccc1[N+](=O)[O-])=NNc1nc(-c2ccc(Cl)c(Cl)c2)cs1 (mixture of isomers),inactive: -0.0628
12,CC(c1cc2ccccc2s1)N(O)C(N)=O (stereo not given) [Zileuton],inactive: 0.396
13,NC(=O)c1ncn([C@@H]2O[C@H](CO)[C@@H](O)[C@H]2O)c1N [Acadesine],inactive: 0.783
14,CNNCc1ccc(C(=O)NC(C)C)cc1 [Procarbazine HCl],inactive: -0.0869
15,O=c1[nH]c(=O)n([C@H]2C[C@H](O)[C@@H](CO)O2)cc1F [Floxuridine],inactive: 0.243
16,C/C(=N\NC(=S)N1CCC1)c1ccccn1,active: -4.73
17,CN(C)CCc1c[nH]c2ccc(C[C@H]3COC(=O)N3)cc12 [Zolmitriptan],inactive: -0.275
18,CN(C)CCC=C1c2ccccc2C=Cc2ccccc21 [Cyclobenzaprine HCl],inactive: 0.17
19,O=C1c2cccc(O)c2C(=O)c2c(O)cc(CO)cc21 [Aloe-emodin],inactive: 0.429
20,COc1cc(/C=C/C(=O)O)ccc1O [Ferulic Acid],inactive: -0.0488
21,C[N+]1(C)CCC(=C(c2ccccc2)c2ccccc2)CC1 [Diphemanil Methylsulfate],inactive: -0.00202
22,NS(=O)(=O)c1cc2c(cc1Cl)NCNS2(=O)=O [Hydrochlorothiazide],inactive: 1.71
23,O=C(NC1CCOCC1)c1ccc(-c2cc(-c3c[nH]nc3-c3ccccn3)ccn2)cc1,inactive: 16
24,O=C1C(=O)N(Cc2ccc(Cl)c(Cl)c2)c2ccccc21 [Apoptosis Activator 2],inactive: -0.202

row,SMILES,nuclei number (z-score)
1,CC(C)(F)C[C@H](N[C@@H](c1ccc(-c2ccc(S(C)(=O)=O)cc2)cc1)C(F)(F)F)C(=O)NC1(C#N)CC1 [Odanacatib (MK-0822)],inactive: 0.121
2,COc1cc(C)c(/C=C/C(C)=C/C=C/C(C)=C/C(=O)O)c(C)c1C [Acitretin],inactive: 0.346
3,C[C@@H]1COCCN1c1cc(C2([S@](C)(=N)=O)CC2)nc(-c2cc[nH]c3nccc2-3)n1,inactive: -0.136
4,Cc1cc(N2C[C@@H](C)N[C@@H](C)C2)ncc1-c1ccc(-c2nc3c(ccn3C)c(=O)[nH]2)cc1,inactive: 0.1
5,CNC(=O)c1nn(C)c2c1C(C)(C)Cc1cnc(Nc3ccc(N4CCN(C)CC4)cc3)nc1-2,active: -5.33
6,CC(C)(O)CC[C@@H](O)[C@](C)(O)[C@H]1CC[C@@]2(O)C3=CC(=O)[C@@H]4C[C@@H](O)[C@@H](O)C[C@]4(C)[C@H]3CC[C@]12C [20-Hydroxyecdysone],inactive: 0.154
7,CN[C@@H](C)C(=O)N[C@H](C(=O)N1CCC[C@H]1C(=O)Nc1snnc1-c1ccccc1)C1CCCCC1,inactive: 0.61
8,COc1cc2nc(N3CCN(C(=O)C4CCCO4)CC3)nc(N)c2cc1OC (stereo not given) [Terazosin HCl],inactive: -0.356
9,Oc1ccc(O)cc1 [Hydroquinone],inactive: -0.378
10,CN1CCN(c2cccc(Nc3nc4c(-c5ccc(S(C)(=O)=O)cc5)cccn4n3)c2)CC1,inactive: 0.38
11,CC(=O)OCC(=O)[C@@]1(O)CC[C@H]2[C@@H]3CCC4=CC(=O)CC[C@]4(C)[C@H]3C(=O)C[C@@]21C [Cortisone acetate],inactive: -0.138
12,CCCCC(=O)O[C@]1(C(=O)CO)[C@@H](C)C[C@H]2[C@@H]3CCC4=CC(=O)C=C[C@]4(C)[C@@]3(F)[C@@H](O)C[C@@]21C [Betamethasone Valerate],inactive: -0.147
13,CNS(=O)(=O)Nc1nccc(Cc2c(C)c3ccc(Oc4ncccn4)cc3oc2=O)c1F,inactive: 1.56
14,OC[C@@H](O)[C@@H](O)[C@H](O)[C@@H](O)CO [Sorbitol],inactive: 7.16
15,CC(C)(C)c1cc(C(=O)C(C#N)=NNc2cccc(Cl)c2)no1,inactive: 2.81
16,CN(C)CCCOc1nn(Cc2ccccc2)c2ccccc12 [Benzydamine HCl],inactive: 0.236
17,O=C1c2c(O)cc(O)cc2OC(c2ccc(O)c(O)c2)C1O (stereo not given) [Taxifolin (Dihydroquercetin)],inactive: 0.353
18,FC(F)(F)c1ccc(/C=C/c2nc(COc3ccc(CCCCn4ccnn4)cc3)co2)cc1 [Mubritinib (TAK 165)],inactive: -0.445
19,N#Cc1ccc(C(c2ccc(C#N)cc2)n2cncn2)cc1 [Letrozole],inactive: 2.78
20,Clc1ccc(CCC(Cn2ccnc2)Sc2c(Cl)cccc2Cl)cc1 (stereo not given) [Butoconazole nitrate],active: -3.55
21,C[C@@]1(C(=O)Nc2ccc(F)nc2)CCCN1c1nc(Nc2cc(C3CC3)n[nH]2)c2cccn2n1,active: -6.9
22,CN(C)C(=O)Nc1cccc(-c2ccc(N(C)C)cc2)c1 [Atglistatin],inactive: -0.156
23,O=C(Nc1cccc(Cl)c1)c1ccccn1,inactive: 0.882
24,C[N+]1(C)CCC(OC(=O)C(O)(c2ccccc2)C2CCCC2)C1 (stereo not given) [Glycopyrrolate],inactive: 0.288

row,SMILES,nuclei number (z-score)
1,CCOC(=O)[C@@H](N)Cc1ccc(-c2cc(O[C@H](c3ccc(Cl)cc3-n3ccc(C)n3)C(F)(F)F)nc(N)n2)cc1 [Telotristat Etiprate (LX 1606 Hippurate)],inactive: 1.34
2,CC(C)CC(N)=O [Isovaleramide],inactive: 3.32
3,CN1CCN(C2=Nc3ccccc3Oc3ccc(Cl)cc32)CC1 [Loxapine Succinate],inactive: 0.791
4,N=C(NCCCCCCNC(=N)NC(=N)Nc1ccc(Cl)cc1)NC(=N)Nc1ccc(Cl)cc1 [Chlorhexidine HCl],active: -5.14
5,COc1c2occc2cc2ccc(=O)oc12 [Methoxsalen],inactive: -0.899
6,Cc1nnc(C(=O)NC(C)(C)c2nc(C(=O)NCc3ccc(F)cc3)c(O)c(=O)n2C)o1 [Raltegravir (MK-0518)],inactive: 0.297
7,c1ccc(NCc2ccc(CNc3ccccn3)cc2)nc1,inactive: -0.416
8,COC(=O)c1ccc2c(c1)nc(NC(=O)c1ccccc1)n2CCCc1ccccc1,inactive: 8.67
9,CN1CCN(Cc2ccc(Nc3ncc(Cl)c(Nc4ccccc4S(=O)(=O)N(C)C)n3)cc2)CC1,active: -5.89
10,O=C(O)c1cn(-c2ccc(F)cc2)c2cc(N3CCNCC3)c(F)cc2c1=O [Sarafloxacin HCl],inactive: 0.133
11,Cc1cc2c(cc1CC(=O)c1sccc1S(=O)(=O)Nc1onc(C)c1Cl)OCO2 [Sitaxentan sodium],inactive: 10.3
12,O=C(NC[C@H]1CN(c2ccc(N3CCOCC3=O)cc2)C(=O)O1)c1ccc(Cl)s1 [Rivaroxaban],inactive: 0.944
13,C[C@@H]1C[C@H]2[C@@H]3C[C@H](F)C4=CC(=O)C=C[C@]4(C)[C@@]3(F)[C@@H](O)C[C@]2(C)[C@@]1(O)C(=O)CO [Flumethasone],inactive: 1.91
14,COC(=O)C1=C(C)NC(C)=C([N+](=O)[O-])C1c1ccccc1C(F)(F)F (stereo not given),inactive: 2.76
15,COc1ccc(-c2ccc3c(N4CCOC[C@@H]4C)nc(N4CCOC[C@@H]4C)nc3n2)cc1CO,inactive: -1.03
16,CC(C)C[C@H](NP(=O)(O)O[C@@H]1O[C@@H](C)[C@H](O)[C@@H](O)[C@H]1O)C(=O)N[C@@H](Cc1c[nH]c2ccccc12)C(=O)O [Phosphoramidon Disodium Salt],inactive: 0.316
17,COc1ccc2c(c1)CCC1C2CCC2(C)C(NCCCCCCN3C(=O)C=CC3=O)CCC12 (stereo not given),inactive: 1.91
18,COc1c(C)c(C(=O)c2ccc(N)c(C(=O)O)c2)n2ccccc12,inactive: -0.291
19,COc1nccc(-c2c(-c3ccc(F)cc3)ncn2C2CCC(O)CC2)n1 (stereo not given),inactive: 0.63
20,Cc1c(C(=O)Nc2ccc(Oc3ccnc4[nH]cc(-c5ccccc5)c34)c(F)c2)c(=O)n(-c2ccc(F)cc2)n1C,inactive: 0.287
21,CN[C@@H](C)C(=O)N[C@H](C(=O)N1CCC[C@H]1c1nc(C(=O)c2ccc(F)cc2)cs1)C1CCCCC1,inactive: -0.0581
22,CCCc1cc(C)[nH]c(=O)c1CNC(=O)c1cc(-c2ccc(N3CCN(C(C)C)CC3)nc2)cc2c1cnn2C(C)C,inactive: 0.555
